{"source": "the supplement of paper PMC8728848", "assay_in_all_cases": "glycan array binding signal (z-score within array); higher = stronger binding", "settings_in_all_cases": "glycan notation: IUPAC condensed, linker removed", "key": {"[1]": {"target": "Gal(b1-4)GlcNAc(b1-3)Gal(b1-4)GlcNAc(b1-3)Gal(b1-4)GlcNAc(b1-3)Gal(b1-4)GlcNAc(b1-3)Gal(b1-4)GlcNAc(b1-2)Man(a1-3)[Gal(b1-4)GlcNAc(b1-3)Gal(b1-4)GlcNAc(b1-3)Gal(b1-4)GlcNAc(b1-3)Gal(b1-4)GlcNAc(b1-3)Gal(b1-4)GlcNAc(b1-2)Man(a1-6)]Man(b1-4)GlcNAc(b1-4)GlcNAc", "in_short": "(§1)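 The Consortium for Functional Glycomics database supplied 3228 glycan arrays, of which those lacking an available protein sequence were dropped. The binding signal, a within-array Z-score, was averaged across arrays of the same protein sequence and across linkers. Negative scores can be read as non-binding.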"}, "[2]": {"target": "Gal(b1-4)GlcNAc(b1-3)Gal(b1-4)GlcNAc(b1-3)Gal(b1-4)GlcNAc(b1-3)Gal(b1-4)GlcNAc(b1-3)Gal(b1-4)GlcNAc(b1-2)Man(a1-3)[Gal(b1-4)GlcNAc(b1-3)Gal(b1-4)GlcNAc(b1-3)Gal(b1-4)GlcNAc(b1-3)Gal(b1-4)GlcNAc(b1-3)Gal(b1-4)GlcNAc(b1-2)Man(a1-6)]Man(b1-4)GlcNAc(b1-4)[Fuc(a1-6)]GlcNAc", "in_short": "as §1"}, "[3]": {"target": "Gal(b1-4)GlcNAc(b1-3)Gal(b1-4)GlcNAc(b1-3)Gal(b1-4)GlcNAc(b1-3)Gal(b1-4)GlcNAc(b1-3)Gal(b1-4)GlcNAc(b1-2)[Gal(b1-4)GlcNAc(b1-3)Gal(b1-4)GlcNAc(b1-3)Gal(b1-4)GlcNAc(b1-3)Gal(b1-4)GlcNAc(b1-3)Gal(b1-4)GlcNAc(b1-6)]Man(a1-6)[Gal(b1-4)GlcNAc(b1-3)Gal(b1-4)GlcNAc(b1-3)Gal(b1-4)GlcNAc(b1-3)Gal(b1-4)GlcNAc(b1-3)Gal(b1-4)GlcNAc(b1-2)Man(a1-3)]Man(b1-4)GlcNAc(b1-4)[Fuc(a1-6)]GlcNAc", "in_short": "as §1"}, "[4]": {"target": "Gal(b1-4)GlcNAc(b1-3)Gal(b1-4)GlcNAc(b1-3)Gal(b1-4)GlcNAc(b1-3)Gal(b1-4)GlcNAc(b1-3)Gal(b1-4)GlcNAc(b1-3)Gal(b1-4)GlcNAc(b1-2)Man(a1-3)[Gal(b1-4)GlcNAc(b1-3)Gal(b1-4)GlcNAc(b1-3)Gal(b1-4)GlcNAc(b1-3)Gal(b1-4)GlcNAc(b1-3)Gal(b1-4)GlcNAc(b1-3)Gal(b1-4)GlcNAc(b1-2)Man(a1-6)]Man(b1-4)GlcNAc(b1-4)GlcNAc", "in_short": "as §1"}, "[5]": {"target": "Gal(b1-4)GlcNAc(b1-3)Gal(b1-4)GlcNAc(b1-3)GalNAc", "in_short": "as §1"}, "[6]": {"target": "Gal(b1-4)GlcNAc(b1-3)Gal(b1-4)GlcNAc(b1-3)[Gal(b1-4)GlcNAc(b1-3)Gal(b1-4)GlcNAc(b1-6)]GalNAc", "in_short": "as §1"}, "[7]": {"target": "Gal(b1-4)GlcNAc(b1-3)Gal(b1-4)GlcNAc(b1-6)[Gal(b1-3)]GalNAc", "in_short": "as §1"}, "[8]": {"target": "Gal(b1-4)GlcNAc(b1-3)Gal(b1-4)[Fuc(a1-3)]GlcNAc(b1-3)Gal(b1-4)[Fuc(a1-3)]GlcNAc", "in_short": "as §1"}, "[9]": {"target": "Gal(b1-4)GlcNAc(b1-3)GalNAc", "in_short": "as §1"}, "[10]": {"target": "Gal(b1-4)GlcNAc(b1-3)[Fuc(a1-3)GlcNAc(b1-6)]Gal(b1-4)Glc", "in_short": "as §1"}, "[11]": {"target": "Gal(b1-4)GlcNAc(b1-3)[Gal(b1-4)GlcNAc(b1-6)]Gal(b1-4)GlcNAc", "in_short": "as §1"}, "[12]": {"target": "Gal(b1-4)GlcNAc(b1-3)[Gal(b1-4)GlcNAc(b1-6)]GalNAc", "in_short": "as §1"}, "[13]": {"target": "Gal(b1-4)GlcNAc(b1-3)[GlcNAc(b1-6)]Gal(b1-4)GlcNAc", "in_short": "as §1"}, "[14]": {"target": "Gal(b1-4)GlcNAc(b1-6)Gal(b1-4)GlcNAc", "in_short": "as §1"}, "[15]": {"target": "Gal(b1-4)GlcNAc(b1-6)Gal(b1-4)GlcNAc(b1-6)GalNAc", "in_short": "as §1"}, "[16]": {"target": "Gal(b1-4)GlcNAc(b1-6)GalNAc", "in_short": "as §1"}, "[17]": {"target": "Gal(b1-4)GlcNAc(b1-6)[Gal(b1-3)]GalNAc", "in_short": "as §1"}, "[18]": {"target": "Gal(b1-4)GlcNAc(b1-6)[Gal(b1-4)GlcNAc(b1-3)]GalNAc", "in_short": "as §1"}, "Gal(b1-4)GlcNAc6P": {"target": "Gal(b1-4)GlcNAc6P", "in_short": "as §1"}, "Gal(b1-6)Gal": {"target": "Gal(b1-6)Gal", "in_short": "as §1"}, "Gal3S(b1-3)GalNAc": {"target": "Gal3S(b1-3)GalNAc", "in_short": "as §1"}, "Gal3S(b1-3)GlcNAc": {"target": "Gal3S(b1-3)GlcNAc", "in_short": "as §1"}, "[19]": {"target": "Gal3S(b1-3)[Fuc(a1-4)]GlcNAc", "in_short": "as §1"}, "Gal3S(b1-4)Glc": {"target": "Gal3S(b1-4)Glc", "in_short": "as §1"}, "Gal3S(b1-4)Glc6S": {"target": "Gal3S(b1-4)Glc6S", "in_short": "as §1"}, "Gal3S(b1-4)GlcNAc": {"target": "Gal3S(b1-4)GlcNAc", "in_short": "as §1"}, "Gal3S(b1-4)GlcNAc6S": {"target": "Gal3S(b1-4)GlcNAc6S", "in_short": "as §1"}, "[20]": {"target": "Gal3S(b1-4)[Fuc(a1-3)]Glc6S", "in_short": "as §1"}, "[21]": {"target": "Gal3S(b1-4)[Fuc(a1-3)]GlcNAc", "in_short": "as §1"}, "[22]": {"target": "Gal3S(b1-4)[Fuc(a1-3)]GlcNAc6S", "in_short": "as §1"}, "Gal3S4S(b1-4)GlcNAc": {"target": "Gal3S4S(b1-4)GlcNAc", "in_short": "as §1"}, "Gal3S6S(b1-4)GlcNAc": {"target": "Gal3S6S(b1-4)GlcNAc", "in_short": "as §1"}, "Gal3S6S(b1-4)GlcNAc6S": {"target": "Gal3S6S(b1-4)GlcNAc6S", "in_short": "as §1"}, "Gal4S(b1-4)GlcNAc": {"target": "Gal4S(b1-4)GlcNAc", "in_short": "as §1"}, "Gal4S6S(b1-4)GlcNAc": {"target": "Gal4S6S(b1-4)GlcNAc", "in_short": "as §1"}, "Gal6P(b1-4)GlcNAc": {"target": "Gal6P(b1-4)GlcNAc", "in_short": "as §1"}, "Gal6S(b1-3)GlcNAc": {"target": "Gal6S(b1-3)GlcNAc", "in_short": "as §1"}}, "note": "The list shows a part of the results.", "data": [{"binder": "LCA (Lens culinaris), P02870 (protein) MASLQTQMISFYLIFLSILLTTIFFFKVNSTETTSFSITKFSPDQKNLIFQGDGYTTKGKLTLTKAVKSTVGRALYSTPIHIWDRDTGNVANFVTSFTFVIDAPSSYNVADEFTFFIAPVDTKPQTGGGYLGVFNSKEYDKTSQTVAVEFDTFYNAAWDPSNKERHIGIDVNSIKSVNTKSWNLQNGERANVVIAFNAATNVLTVTLTYPNSLEEENVTSYTLNEVVPLKDVVPEWVRIGFSATTGAEFAAHEVHSWSFHSELGGTSSSKQAADA", "values": [{"measurement": "glycan array binding signal (z-score)", "setting": "[1]", "result": -0.164}, {"measurement": "glycan array binding signal (z-score)", "setting": "[2]", "result": 3.85}, {"measurement": "glycan array binding signal (z-score)", "setting": "[3]", "result": 2.98}, {"measurement": "glycan array binding signal (z-score)", "setting": "[4]", "result": -0.192}, {"measurement": "glycan array binding signal (z-score)", "setting": "[5]", "result": 0.106}, {"measurement": "glycan array binding signal (z-score)", "setting": "[6]", "result": 0.058}, {"measurement": "glycan array binding signal (z-score)", "setting": "[7]", "result": 0.068}, {"measurement": "glycan array binding signal (z-score)", "setting": "[8]", "result": -0.221}, {"measurement": "glycan array binding signal (z-score)", "setting": "[9]", "result": -0.177}, {"measurement": "glycan array binding signal (z-score)", "setting": "[10]", "result": -0.119}, {"measurement": "glycan array binding signal (z-score)", "setting": "[11]", "result": -0.192}, {"measurement": "glycan array binding signal (z-score)", "setting": "[12]", "result": -0.245}, {"measurement": "glycan array binding signal (z-score)", "setting": "[13]", "result": -0.248}, {"measurement": "glycan array binding signal (z-score)", "setting": "[14]", "result": -0.215}, {"measurement": "glycan array binding signal (z-score)", "setting": "[15]", "result": -0.239}, {"measurement": "glycan array binding signal (z-score)", "setting": "[16]", "result": -0.207}, {"measurement": "glycan array binding signal (z-score)", "setting": "[17]", "result": -0.197}, {"measurement": "glycan array binding signal (z-score)", "setting": "[18]", "result": -0.186}, {"measurement": "glycan array binding signal (z-score)", "setting": "Gal(b1-4)GlcNAc6P", "result": -0.181}, {"measurement": "glycan array binding signal (z-score)", "setting": "Gal(b1-6)Gal", "result": -0.19}, {"measurement": "glycan array binding signal (z-score)", "setting": "Gal3S(b1-3)GalNAc", "result": -0.218}, {"measurement": "glycan array binding signal (z-score)", "setting": "Gal3S(b1-3)GlcNAc", "result": -0.2}, {"measurement": "glycan array binding signal (z-score)", "setting": "[19]", "result": -0.202}, {"measurement": "glycan array binding signal (z-score)", "setting": "Gal3S(b1-4)Glc", "result": -0.176}, {"measurement": "glycan array binding signal (z-score)", "setting": "Gal3S(b1-4)Glc6S", "result": -0.189}, {"measurement": "glycan array binding signal (z-score)", "setting": "Gal3S(b1-4)GlcNAc", "result": -0.227}, {"measurement": "glycan array binding signal (z-score)", "setting": "Gal3S(b1-4)GlcNAc6S", "result": -0.227}, {"measurement": "glycan array binding signal (z-score)", "setting": "[20]", "result": -0.17}, {"measurement": "glycan array binding signal (z-score)", "setting": "[21]", "result": -0.225}, {"measurement": "glycan array binding signal (z-score)", "setting": "[22]", "result": -0.221}, {"measurement": "glycan array binding signal (z-score)", "setting": "Gal3S4S(b1-4)GlcNAc", "result": -0.226}, {"measurement": "glycan array binding signal (z-score)", "setting": "Gal3S6S(b1-4)GlcNAc", "result": -0.211}, {"measurement": "glycan array binding signal (z-score)", "setting": "Gal3S6S(b1-4)GlcNAc6S", "result": -0.226}, {"measurement": "glycan array binding signal (z-score)", "setting": "Gal4S(b1-4)GlcNAc", "result": -0.215}, {"measurement": "glycan array binding signal (z-score)", "setting": "Gal4S6S(b1-4)GlcNAc", "result": -0.191}, {"measurement": "glycan array binding signal (z-score)", "setting": "Gal6P(b1-4)GlcNAc", "result": -0.268}, {"measurement": "glycan array binding signal (z-score)", "setting": "Gal6S(b1-3)GlcNAc", "result": -0.226}]}]}
